Consider 13 compounds from ChEMBL document CHEMBL2375291, “Discovery of a series of novel 5H-pyrrolo[2,3-b]pyrazine-2-phenyl ethers, as potent JAK3 kinase inhibitors” (Bioorg Med Chem Lett, 2013).

Molecules are shown by their SMILES.

Assay [1] deals with T1, Tyrosine-protein kinase JAK2 (Homo sapiens, UniProt O60674).
Assay [2] has as its target T1, Tyrosine-protein kinase JAK2. The source holds these as a separate data set.
For assay [3], the target named is JAK2/JAK1 (Homo sapiens, UniProt O60674+P23458). Type of assay: protein-complex assay.
Assay [4] addresses JAK3/JAK1 (Homo sapiens, UniProt P23458+P52333). Type of assay: protein-complex assay.

A word on the IC50: it is the concentration at which inhibition is half-maximal. On to `Cc1cccc(Oc2cnc3[nH]cc(C(=O)NC(C)C)c3n2)c1`, for which, in assay [1], half-maximal inhibition (IC50) was put at 410 nM.
For `Cc1ccccc1Oc1cnc2[nH]cc(C(=O)NC(C)C)c2n1`, in assay [1], the IC50 was 2320 nM.
Compound `CC(=O)N[C@@H]1CCc2ccc(Oc3cnc4[nH]cc(C(=O)NC(C)C)c4n3)cc21` yielded a half-inhibitory concentration (IC50) in assay [1] of 1010 nM. This IC50 lies about 2.3-fold lower than the previous one.
Compound `COc1cc(OC)cc(Oc2cnc3[nH]cc(C(=O)NC(C)C)c3n2)c1` had an IC50 in assay [1] of 1000 nM.
Turning to `CC(C)NC(=O)c1c[nH]c2ncc(Oc3ccccc3)nc12`, the IC50 in assay [1] came out at 250 nM.
With `CC(=O)N[C@@H]1CCc2ccc(Oc3cnc4[nH]cc(C(=O)N[C@@H](C(=O)N5CC(C#N)C5)C5CC5)c4n3)cc21`, the IC50 is 39 nM in assay [1], 23300 nM in assay [2], more than 30000 nM in assay [3] and 7410 nM in assay [4].
For the compound `CC(=O)N[C@@H]1CCc2ccc(Oc3cnc4[nH]cc(C(=O)N[C@H](C)C5CC5)c4n3)cc21`, the IC50 in assay [1] was 194 nM; in assay [2], 16200 nM; in assay [3] it was more than 30000 nM.
In turn, `CC(NC(=O)c1c[nH]c2ncc(Oc3ccccc3)nc12)C1CC1` (stereo not given) yielded a half-maximal inhibitory concentration (IC50) in assay [1] of 70 nM.
On the same count and under the same terms, in the case of `CC(=O)N[C@H]1CCc2ccc(Oc3cnc4[nH]cc(C(=O)NC(C)C)c4n3)cc21` it was 1710 nM; in that of `CC(=O)N[C@@H]1CCc2ccc(Oc3cnc4[nH]cc(C(=O)N[C@H](C)C(=O)N5CC(C#N)C5)c4n3)cc21`, 1350 nM.
On to `CC(=O)N[C@@H]1CCc2ccc(Oc3cnc4[nH]cc(C(=O)N[C@@H](C)C5CC5)c4n3)cc21`, for which the figures for the concentration for half-maximal inhibition (IC50) in assay [1], in assay [2] and in assay [3] were 84 nM, 3610 nM and 14400 nM, respectively.
In assay [1], `CCc1cccc(Oc2cnc3[nH]cc(C(=O)NC(C)C)c3n2)c1` had a concentration for half-maximal inhibition (IC50) of 1210 nM.
On the same count and under the same terms, in the case of `CC(C)NC(=O)c1c[nH]c2ncc(Oc3ccc(C#N)cc3)nc12` it was 900 nM.
